Measured values from a collection of fitness landscapes (doi:10.1016/j.celrep.2020.107928).
Whole data set: some 81,000 sequences, median “one-hybrid fitness for binding parS DNA” near -0.17, cut for the highest 2% near 0.51. This is one part of the list.

B1: Caulobacter ParB omega fusion; a variant is named by its letters at X, in order, B8GW30 (parent)
chain: MESVVVGEPGMSEGRRGLGRGLSALLGEVDAAPAQAPGEQLGGSREAPIEILQRNPDQPRRTFREEDLEDLSNSIREKGVLQPILVRPSPDTAGEYQIVAGERAWRAAQRAGLKTVPIMVRELDDLAVLEIGIIENVQRADLNVLEEALSYKVLMEKFERTQENIAQTIGKSXSHVANXMRLLXLPDEVQSYLVSGELTAXHARAIAAAADPVALAKQIIEGGLSVRETEALARKAPNLSAGKSKGGRPPRVKDTDTQALESDLSSVLGLDVSIDHRGSTGTLTITYATLEQLDDLCNRLTRGI

Variants of: B1
Test: one-hybrid fitness for binding parS DNA (scaled: cognate 1, non-cognate 0); higher = stronger binding
Settings: with parS DNA site
In short: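 Fitness is the rescaled log change in variant-to-wild-type read ratio, measured by Illumina sequencing of plasmids before and after bacterial one-hybrid selection. The scale puts cognate at 1 and non-cognate at 0. Selection of Caulobacter ParB libraries, four specificity codons randomised, took place in E. coli USO with a HIS3 reporter, site 19 bp from the promoter, over 48 hours at 37°C on M9-minus-histidine with 0.1 mM IPTG and 5 mM 3-AT.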

one-hybrid fitness for binding parS DNA, 0.223:
RQLW
FCDL

one-hybrid fitness for binding parS DNA, 0.453:
RCSY

one-hybrid fitness for binding parS DNA, ≤ 0.2:
RENF
IIAM
RKLD
VKGC
YAAA
VNTK
TSFS
IGRY
VYNV
RLSL
VYHP
HPSA
PMLV
IQAN
QRCD
WQVG
ASNH
YDRK
TLKF
PFRS
MQCG
NTHM
TNWS
AYHW
IMHS
TEFR
EWLS
GLPV
TCSD
GKLR
MSHP
MSTT
NSPV
DMLR
MVHT
NVVY
HVDI
STPF
VRQA
AMPE
RGCK
ASVT
TIEW
YKSK
ITVY
QQSQ
DVVM
PAWF
QKAL
HYCW
RMGD
KYSL
TAAQ
ERVS
SPYA
RPRR
PWKN
QVII
YIER
PINM
FTMS
QLIW
HNYT
QDER
NGRS
TTVG
APPI
SDDY
QTLG
YDTG
QEDF
SCWA
GWKR
FEGR
TVPN
EFYG
QGLP
SPTE
QHIW
YAQT
RHPP
GDCL
SDHY
VHKF
WESS
KIVV
VTVR
HYAN
GKRN
ETAS
YQKG
SYAS
PGEC
VMVY
VKHY
GDDI
DDDR
CATL
GMCC
NRFT
GALI
GDMM
IITV
QYKE
QQVP
LQLG
QYFA
MLDM
AWDS
MHRI
QQHI
QVRV
SMGM
TCGV
PDMF
AHGT
VFPG
PVNQ
WASC
ADVW
HCHA
RHVD
WMSV
HSYA
MSVK
QHGN
LFSW
FRPI
LGAE
HTNY
RQTI
YCHI
NLDF
QLCM
LNHR
NVHE
SYNF
AYMG
SSGY
QMNG
PIQT
HWLS
AKMP
VIAG
LRPC
GTNI
KTCY
LDAC
TWGR
YRLI
TLLC
GCTE
NQHC
NGIL
IRYR
ETPM
RDRT
HGDY
AKSR
LAGQ
SAQT
QNRT
PMLY
QDNT
WVRT
NPVF
KNQF
AMLE
SNRY
REER
PYNG
DYNH
QMRK
RSND
RSPW
WSFS
DREG
WFGR
DMHW
ITKV
SERR
LFTY
PDEL
YDPY
SFCT
AASM
PTYK
YNGP
GELR
WCST
YTYR
NEMF
HLED
NYIE
HSPT
RRSV
NQDG
HANF
CAVY
DDHT
PFPV
QSPY
LNAF
QPHK
DANY
YPCF
KSNR
GIET
YKEK
FDLG
CPAD
MGEF
WANF
PGTG
QYSP
AGWR
AAAI
NPHY
QEDE
PACG
MMTF
QSVK
TQCV
MQGT
QGKC
GPTH
GWYS
YKKF
SFRF
HQSA
GRQG
RQPA
DAEV
AATN
NFPR
VIML
PINF
TWTY
LGAS
RTGV
QWVI
PEHL
KEDR
NAMR
SKPR
DEGR
WMPH
WPPR
WKLR
CAAW
DKLR
AMMR
QACT
YFYS
RHSL
TEQA
SAYC
INWI
YVHD
PMQR
DTQG
TQGT
KTFR
KHVC
QHGA
SFML
HTGN
NERC
ATVD
ERVR
MSES
DTTP
HSEM
DSAP
QRKL
QTEF
LQAK
CARI
EHKE
QAKC
QRVL
CMFS
ITQS
LPRG
SQCV
DKMG
SQPT
DCVG
PESS
WRNA
CTMC
TPVR
KFPV
KSRA

one-hybrid fitness for binding parS DNA, 0.251:
RGIA

one-hybrid fitness for binding parS DNA, 0.997:
RVMS

one-hybrid fitness for binding parS DNA, 0.241:
RCLK

one-hybrid fitness for binding parS DNA, 0.677:
RCCA

one-hybrid fitness for binding parS DNA, 0.266:
RVQW

one-hybrid fitness for binding parS DNA, 0.853:
RFHT

one-hybrid fitness for binding parS DNA, 0.772:
RRWS

one-hybrid fitness for binding parS DNA, 0.873:
RNGS

one-hybrid fitness for binding parS DNA, 0.693:
RFDT
